# Test results from the supplement of paper PMC3334620.
# Over roughly 33,000 sequences, “E-score (-0.5 to 0.5)” has its median near -0.013; the highest 2% begin near 0.3. The list shows a part of the results.
# Target: T1, Msn1 (UniProt P22148)
# T1 sequence: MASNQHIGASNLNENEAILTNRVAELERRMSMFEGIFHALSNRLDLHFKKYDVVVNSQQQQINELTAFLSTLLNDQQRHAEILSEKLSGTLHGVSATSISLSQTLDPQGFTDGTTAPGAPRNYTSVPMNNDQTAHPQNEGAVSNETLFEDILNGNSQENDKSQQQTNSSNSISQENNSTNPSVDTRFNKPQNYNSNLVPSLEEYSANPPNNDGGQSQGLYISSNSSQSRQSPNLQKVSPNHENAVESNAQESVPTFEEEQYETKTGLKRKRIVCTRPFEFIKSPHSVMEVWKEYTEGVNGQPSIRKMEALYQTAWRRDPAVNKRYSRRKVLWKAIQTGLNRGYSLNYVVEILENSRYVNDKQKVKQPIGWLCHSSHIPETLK
# Assay: PBM E-score (8-mer binding enrichment) (E-score (-0.5 to 0.5)); higher = stronger / more preferred TF binding; most listed sequences are background and not binding sites
# Conditions: protein concentration: 200 nM; construct: GST-full length
# Description: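 Universal 'all 10-mer' protein binding microarrays (Agilent AMADID 015681) probed with GST-tagged S. cerevisiae TFs (full-length or DBD) made by in vitro transcription/translation (PURExpress), about 100-200 nM. Bound TF was detected with fluorescent anti-GST. Each ungapped 8-mer (which stands for itself and its reverse complement) is scored by the PBM enrichment score (E-score), a modified Wilcoxon-Mann-Whitney statistic from -0.5 to +0.5, computed with the Universal PBM Analysis Suite. Scale: above 0.35 generally sequence-specific binding.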
row,Sequence,PBM E-score
1,ATAATATC,0.25
2,GACAGATA,0.281
3,GTCATTAA,0.246
4,CAGCTACG,-0.186
5,CGCGGTCC,-0.0855
6,CATGCTTC,-0.016
7,AAATGAAC,0.156
8,GGCAGTTA,-0.0746
9,CAACGGCA,-0.0227
10,GATCGCAA,0.129
11,GCCACGTA,-0.0984
12,CCCGCAGC,-0.238
13,GGGAAATA,-0.16
14,CTATCTGC,-0.1
15,CCATCGAC,-0.207
16,ATGGTAAC,0.0897
17,TAGAAAAA,0.0152
18,GAACGTCC,0.206
19,AACTATGA,-0.0095
20,AGGCCATA,-0.145
21,ACTTAGTG,-0.0501
22,ATCGATAC,0.205

row,Sequence,PBM E-score
1,AGGATAAC,-0.124
2,CACCTGGG,-0.252
3,AGTGATGG,-0.00297
4,AGCCACGA,-0.181
5,GTTGGTTA,0.0592
6,AGTTTACG,-0.0785
7,AGTCTTAT,0.174
8,CTACGCAA,-0.138
9,CCTAGCAG,-0.0737
10,CTCCGGAC,0.224
11,AACGCGCG,0.155
12,ATGGAAAT,0.0754
13,GGCAGCGA,-0.245
14,GGGATACA,0.00752
15,ACCGAGGC,-0.0613
16,GGTCTCGA,-0.0089
17,GACGGTCA,-0.153
18,AGAAATCA,0.116
19,CCCCTAGA,-0.307
20,CCACACAC,-0.0382
21,GTCACAAC,0.0529
22,GCGAGGAC,0.0256

row,Sequence,PBM E-score
1,CGACGGAA,0.0402
2,CTTGCTTC,0.0255
3,AGTTCATA,0.042
4,AAGCACCG,-0.197
5,GCGCCTGA,0.132
6,CACTGGAC,0.197
7,ATAGGGAT,-0.0399
8,ACTACTTA,0.0469
9,TCCCGGGA,0.0874
10,CTCTGGAA,-0.0717
11,ACAACAAA,0.13
12,CCTCGGCA,0.184
13,CGAGCAAA,-0.0767
14,AAACCGCG,0.177
15,CCGAGATA,0.138
16,GGCCAGAA,-0.00479
17,CAGACGAA,0.275
18,CGCTTCGA,-0.121
19,ACGTAGTA,-0.0206
20,ACGGGCGA,-0.15
21,AGTGCCAG,-0.305
22,ACTGATGG,-0.144

row,Sequence,PBM E-score
1,ACAGGTGC,-0.225
2,CACGAAGA,0.104
3,ATGTCATC,0.341
4,CCGGTACA,0.319
5,CAACAGCC,0.0778
6,AGGGCATG,0.102
7,ACCGTGAA,0.0388
8,AGCCTACA,-0.135
9,CACTCGCC,0.0367
10,GGGCCTGA,-0.109
11,ATCTAGCC,-0.0866
12,ACATTGAA,0.203
13,CAGACTCG,-0.0374
14,ACACGCTC,0.00728
15,GGGGCGCA,-0.142
16,CTTGCCGA,0.0568
17,ATTAGCTC,-0.0671
18,CCGCACCG,0.00645
19,ATAACCTA,-0.0308
20,ACCTCAGC,-0.0549
